The list shows a part of the results.

One test concerns HSkMC. In words: cytotoxicity call (relative viability < 0.9). Conditions: 10 µM.
The next test deals with HepG2. The test can be described thus: cytotoxicity call (relative viability < 0.9). Conditions: 10 µM.
A further test concerns S. aureus RN4220. In words: growth inhibition call (relative growth <= 0.2). Conditions: 50 µM.

As to `COCC(=O)Nc1ccc2c(c1)C(=O)N(C)[C@H]1CC[C@H](CC(=O)N3CCc4ccccc4C3)O[C@@H]1CO2`, the cytotoxicity call in the test on HSkMC and in the test with HepG2 was “inactive” throughout. Besides, in the test on S. aureus RN4220, the growth inhibition call was “inactive”.

On to `C[C@@H]1CN([C@H](C)CO)C(=O)c2cccc(NC(=O)c3nc4ccccc4s3)c2O[C@H]1CN(C)Cc1ccc(-c2ccccc2)cc1`, for which the cytotoxicity call with HSkMC and in the test with HepG2 was “inactive” each time. For the same compound, the growth inhibition call in the test on S. aureus RN4220 is “inactive”.

Regarding `C[C@@H]1CCCCO[C@@H](CN(C)Cc2ccncc2)[C@H](C)CN([C@H](C)CO)C(=O)c2cc(NC(=O)NC3CCCCC3)ccc2O1`, the cytotoxicity call with HSkMC and in the test with HepG2 was “inactive” each time. Also, the growth inhibition call with S. aureus RN4220 was “inactive”.

As for `COc1cccc(C(=O)NCC(=O)O)c1`, the cytotoxicity call with HSkMC and with HepG2 was “inactive” each time. For the same compound, in the test with S. aureus RN4220, the growth inhibition call was “inactive”.

Turning to `C[C@H]1CN([C@@H](C)CO)C(=O)c2cc(NC(=O)Cn3cnnn3)ccc2O[C@H]1CN(C)C(=O)Nc1ccc(F)cc1`, the cytotoxicity call in the test on HSkMC and in the test on HepG2 was “inactive” each time. Moreover, the growth inhibition call in the test on S. aureus RN4220 is “inactive”.

As to `CO[C@@H]1CN(C)C(=O)c2cc(NC(=O)Nc3ccc(Cl)cc3)ccc2OC[C@@H](C)N(C(=O)Nc2c(C)noc2C)C[C@@H]1C`, the cytotoxicity call in the test with HSkMC and in the test on HepG2 was “inactive” in each case. Besides, the growth inhibition call in the test with S. aureus RN4220 is “inactive”.

Turning to `C[C@@H]1CN([C@H](C)CO)S(=O)(=O)c2ccc(C#Cc3ccccc3)cc2O[C@@H]1CN(C)S(C)(=O)=O`, the cytotoxicity call in the test with HSkMC and with HepG2 was “inactive” throughout. Moreover, the growth inhibition call in the test with S. aureus RN4220 is “inactive”.

With `COc1ccccc1S(=O)(=O)N(C)C[C@H]1OCc2cnnn2CCCC(=O)N([C@H](C)CO)C[C@H]1C`, the cytotoxicity call in the test on HSkMC and in the test on HepG2 was “inactive” in each case. Moreover, in the test on S. aureus RN4220, the growth inhibition call was “inactive”.

Take `C=CCOC(=O)[C@@H]1[C@H]2C(=O)O[C@H](c3ccccc3)[C@H](c3ccccc3)N2[C@H](c2ccc(OCCOC(=O)[C@H]3C[C@H]4C(=O)N[C@@H](Cc5ccccc5)C(=O)N4[C@H]3c3ccc(O)cc3)cc2)[C@@]12C(=O)Nc1ccc(I)cc12`: the cytotoxicity call in the test with HSkMC and in the test on HepG2 was “inactive” in each case. Moreover, the growth inhibition call in the test on S. aureus RN4220 is “inactive”.

`C[C@@H]1CN([C@@H](C)CO)C(=O)Cc2cc(NC(=O)CCC(F)(F)F)ccc2O[C@@H]1CN(C)Cc1ccc(-c2ccccc2)cc1`: the cytotoxicity call in the test on HSkMC and in the test on HepG2 was “inactive” throughout. Besides, in the test on S. aureus RN4220, the growth inhibition call was “inactive”.

In the case of `COc1cccc(S(=O)(=O)N(C)C[C@@H]2Oc3ncc(-c4cccc(C(=O)N(C)C)c4)cc3C(=O)N([C@H](C)CO)C[C@H]2C)c1`, the cytotoxicity call in the test on HSkMC and in the test with HepG2 was “inactive” in each case. For the same compound, the growth inhibition call in the test with S. aureus RN4220 was “inactive”.

On to `C[N+](C)(C)CC(O)CC(=O)O.[Cl-]` (stereo not drawn), for which the cytotoxicity call in the test on HSkMC and with HepG2 was “inactive” each time. Also, the growth inhibition call with S. aureus RN4220 was “inactive”.

`Cc1ccc(-c2ccc3c(c2)O[C@@H](CN(C)C(=O)Nc2ccc(C(F)(F)F)cc2)[C@@H](C)CN([C@H](C)CO)S3(=O)=O)cc1`: the cytotoxicity call with HSkMC was “inactive”. The cytotoxicity call with HepG2 is “active”. Further, the growth inhibition call with S. aureus RN4220 is “inactive”.

With `O=C(NO)c1ccc(C(=O)N/N=C/[C@@H](O)[C@@H](O)[C@H](O)[C@H](O)CO)cc1`, the cytotoxicity call in the test with HSkMC and in the test on HepG2 was “inactive” each time. The growth inhibition call with S. aureus RN4220 was “inactive”.

Consider `Cc1noc(C)c1NC(=O)Nc1ccc2c(c1)C(=O)N([C@H](C)CO)C[C@H](C)[C@@H](CN(C)Cc1ccc(C(=O)Nc3ccccc3N)cc1)O2`, for which the cytotoxicity call with HSkMC and in the test on HepG2 was “inactive” each time. The growth inhibition call with S. aureus RN4220 is “inactive”.

Turning to `C[C@@H]1CN([C@@H](C)CO)C(=O)c2cccc(NC(=O)Nc3ccc(F)cc3)c2O[C@@H]1CN(C)Cc1ccc(Oc2ccccc2)cc1`, the cytotoxicity call with HSkMC and in the test on HepG2 was “inactive” each time. In addition, the growth inhibition call in the test on S. aureus RN4220 was “inactive”.

Consider `COc1ccc(S(=O)(=O)Nc2ccc3c(c2)C(=O)N([C@@H](C)CO)C[C@@H](C)[C@@H](CN(C)Cc2ccc(C(=O)O)cc2)OCCCC[C@H](C)O3)cc1`, for which the cytotoxicity call with HSkMC and in the test with HepG2 was “inactive” in each case. The growth inhibition call in the test on S. aureus RN4220 is “inactive”.

Consider `C[C@@H]1CN([C@@H](C)CO)C(=O)Cc2cc(NC(=O)Nc3ccc(F)cc3)ccc2O[C@H]1CN(C)Cc1ccc(C(=O)Nc2ccccc2N)cc1`, for which the cytotoxicity call in the test with HSkMC and in the test on HepG2 was “inactive” in each case. Also, the growth inhibition call in the test on S. aureus RN4220 was “inactive”.

Consider `C[C@H](CO)N1C[C@H](C)[C@H](CN(C)Cc2ccncc2)Oc2ncc(C#Cc3ccc(F)cc3)cc2C1=O`, for which the cytotoxicity call in the test on HSkMC and in the test on HepG2 was “inactive” each time. In addition, the growth inhibition call with S. aureus RN4220 was “inactive”.

As for `COc1ccc(S(=O)(=O)Nc2ccc3c(c2)C(=O)N([C@@H](C)CO)C[C@@H](C)[C@@H](CN(C)C(=O)CCC(F)(F)F)OCCCC[C@@H](C)O3)cc1`, the cytotoxicity call in the test on HSkMC and in the test with HepG2 was “inactive” throughout. Besides, the growth inhibition call with S. aureus RN4220 was “inactive”.

On to `O[C@@H]1N[C@H](O)c2ccccc21`, for which the cytotoxicity call with HSkMC and with HepG2 was “inactive” each time. Further, the growth inhibition call with S. aureus RN4220 is “inactive”.

With `Cc1noc(C)c1NC(=O)Nc1ccc2c(c1)C(=O)N([C@@H](C)CO)C[C@@H](C)[C@H](CN(C)Cc1ccc(Oc3ccccc3)cc1)O2`, the cytotoxicity call in the test on HSkMC and in the test on HepG2 was “inactive” in each case. For the same compound, the growth inhibition call with S. aureus RN4220 was “inactive”.

For `C[C@@H]1CN([C@@H](C)CO)C(=O)CCCn2nncc2CO[C@@H]1CN(C)C(=O)Nc1ccc2c(c1)OCO2`, the cytotoxicity call in the test on HSkMC (human skeletal muscle cells) and in the test on HepG2 was “inactive” throughout. In the test on S. aureus RN4220, the growth inhibition call is “inactive”.

For `C[C@@H]1CN([C@@H](C)CO)C(=O)c2cc(NS(=O)(=O)c3cccs3)ccc2O[C@H]1CN(C)Cc1ccc(Oc2ccccc2)cc1`, the cytotoxicity call with HSkMC and with HepG2 was “inactive” in each case. Also, the growth inhibition call in the test on S. aureus RN4220 is “inactive”.

As to `COc1ccc(CN(C)C[C@@H]2Oc3ccc(NC(=O)Nc4ccc(C(F)(F)F)cc4)cc3CC(=O)N([C@H](C)CO)C[C@@H]2C)cc1`, the cytotoxicity call with HSkMC and with HepG2 was “active” in each case. The growth inhibition call in the test with S. aureus RN4220 is “inactive”.

With `COc1ccc(NC(=O)N(C)C[C@H]2Oc3ccc(NC(=O)C4CC4)cc3C(=O)N([C@@H](C)CO)C[C@H]2C)cc1`, the cytotoxicity call in the test with HSkMC and in the test with HepG2 was “inactive” each time. Moreover, the growth inhibition call in the test with S. aureus RN4220 is “inactive”.

(Values after the antibiotic and cytotoxicity screens of Wong et al. (2023).)
